Read counts are not given, so values of variants with three or more changes are uncertain.
B1: LINE1-full (parent)
chain: UACGUAGGUGGUUUUCCCCUGAUAGUGCUAAGGGGGCCUGGAAGUUUGGACUGGGCAGAGCUCAACACAGCGUGGCAAAGUGGCUGUGGCUAGACUGCCUCUCUGGAUUCCUCGUCACUCAGCAGGGCAUCUCUGAGAGAAAUGCC

Variants of: B1
Test: self-cleavage, relative activity (ratio to wild type); higher = more cleavage; in vitro, sequencing; the parent is a self-cleaving ribozyme

Question: With AACGUAGGUGGUUUUCCCCUGAUAGUGCUAAGGGGGCCUGGAAGUUUGGACUGGGCAGAGCUCAACACAGCGUGGCAAAGAGGCUGUGGCUAGACUGCCUCCCUGGAUUCCUCGUCACUCAGCAGGGCAUCUCUGAGAGAAAUGCC [U1A U81A U102C] as the variant, how does the self-cleavage read?
Answer: 2.32

Question: With AACGUAGGUGGUUUUCCCCUGGUAGUGCUAAGGGGGCCUGGAAGUUUGGACUGGGCAGAGCUCAACACAGCGUGGCAAAGUGGCUGUGGCUAGGCUGCUCCUCUGGAUUCCUCGUCACUCAGCAGGGCAUCUCUGAGAGAAAUGCC [U1A A22G A94G C99U U100C] as the variant, how does the self-cleavage read?
Answer: 0.46

Question: Which self-cleavage does the source give for AACGUAGGUGGUUUUCCCCGGAUAGUGCUAAGGGGGCCUGGAAGCUUGGACUGGGCAGAGCUCAACACAGCGUGGCAAAGUGGCUGUGGCUAGACAGCCUCUCUGGAUUCCUCGUCACUCAGCAGGGCAUCUCUGAGAGAAAUGCC [U1A U20G U45C U96A] here?
Answer: 0.16

Question: With AACGUAGGUGGUCUUCCCCUGAUAGUGCUAAGGGGGCCUGGAAGUUUGGACUGGGCAGAGCUCAACACAGCGUGGCAAAGUGGCUGUGGCUAGACUGCCUCUCUGGAUUCCUCGUCACUCAGUAGGGCAUCUCUGAGAGAAAUGCC [U1A U13C C123U] as the variant, how does the self-cleavage read?
Answer: 1.29

Question: For AACGUAGGUGGUUUUCCCUUGAUAGUGCUAAGGGGGCCUGGAAGCUUGGGCUGGGCAGAGCUCAACACAGCGUGGCAAAGUGGCUGUGGCUAGACUGCCUCUCUGGAUUCCUCGUCACUCAGCAGGGCAUCUCUGAGAGAAAUGCC [U1A C19U U45C A50G], which self-cleavage is on record?
Answer: 0

Question: With CGCGUAGGUGGUUUUCCCCUGAUAGUGCUAAGGGGGCCUGGAAGUUUGGACUGGGCAGAGCUCAACACAGCGUGGCAAAGUGGCUGUGGCUAGACUGCCUCUCUGGAUUCCUCGUCACUCAGCAGGGCAUCUCUGAGAGAGAUGCC [U1C A2G A141G] as the variant, how does the self-cleavage read?
Answer: 0.51

Question: With AACGUAGGUGGUUCUCCCCUGAUAGUGCUAAGGGGGCCUGGAAGUUUGGACUGGGCAGAGCUCAACGCAGCGUGGCAAAGUGGCUGUGGCUAGACUGCCUCUCUGGAUUCCUCGUCACUCAGCAGGGCAUCUCUGAGAGAAAUGCC [U1A U14C A67G] as the variant, how does the self-cleavage read?
Answer: 0.27

Question: For AACGUAGGUGGUUUUCCCCUGAUAGUGCUAAGGGGGCCUGGAAGUUCGGACUGGGCAGAGCUCAACACAGCGUGGCAAAGUGGCUGUGGCUAGACUGCCUCUCUGGAUUCCUCGCCACUCAGCAGGGCAUCCCUGAGAGAAAUGCC [U1A U47C U115C U132C], which self-cleavage is on record?
Answer: 0

Question: With AACGCAGGUGGUUUUCCCCUGAUAGUGCUAAGGGGGCCUGGAAGUUUGGACUGGGCAGAGCCCAACACAGCGUGGCAAAGUGGCUGUGGCUAGACUGCCUCUCUUGAUUCCUCGUCACCCAGCAGGGCAUCUCUGAGAGAAAUGCC [U1A U5C U62C G105U U119C] as the variant, how does the self-cleavage read?
Answer: 0

Question: Which self-cleavage does the source give for AACGUAGGUGGUUUUCCCCUGAUAGUGCUAAGGGGGCCUGGAAGUUUGGACUGGGCUGAGCUCAACACAGCGUAGCGAAGUGGCUGUGGCUAGACUGCCUCUCUGGAUUCCUCGUCACUCAGCAGGGCAUCUCUGAGAGAAAUGCC [U1A A57U G74A A77G] here?
Answer: 0.17

Question: With AACGUAGGUGGUUUUCCCCUGAUAGUGCUAAGGGGGCCUGGAAGUUUGGACUGGGCAGAGCUCAACACAGCGUGGCUAAGUGGCUGUGGCUAGACUGCCUCUCUGGAUUCCUCGUCUCUCAGCAGGGCAUCUCUGAGAGAAAUGCC [U1A A77U A117U] as the variant, how does the self-cleavage read?
Answer: 0.32

Question: Which self-cleavage does the source give for AACGUAGGUGGUUUUCCCCUGGUAGUGCUAAGGGGGCCUGGAAGUUUGGACUGGGCAGGGCUCAACACAGCGUGGCAAAGUGGCUGUGGCUAGACUGCCUCUCUGGAUUCCUCGUCACUCAGUAGGGCAUCUCUGAGAGAAAUGCC [U1A A22G A59G C123U] here?
Answer: 0.33

Question: With AACGUAGGUGGUUUUCACCUGAUAGUGCUAAGGGGGCCUGGAAGUUUGGACUGGGCAGAGCUCAACACAGCGUGGCAAAGUGGCUGUGGCUAGACUGCCUCUCCGGAUUCCUCGUCACUCAGCAGGGCAUCUCUGAGAGAAAUGCC [U1A C17A U104C] as the variant, how does the self-cleavage read?
Answer: 1.12

Question: With AACGUAGGUGGUUUUCCCCUGAUAGUGCUAAGGGGGCCUGGAAGUUUGGACUGGGCAGAGCUCAACUCAGCGUGGCAAAGUGGCUGUGGCUAGACUGCCUCCCUGGAUUCCUCGUCACUCAGCAGGGCAUCCCUGAGAGAAAUGCC [U1A A67U U102C U132C] as the variant, how does the self-cleavage read?
Answer: 0.5

Question: Which self-cleavage does the source give for AACGUAGGCGGUUUUCCCCUGAUAGUGCUAAGGGGGCCAGGAAGUUUGGACUGGGCAGAGCCCAACACAGCGUGGCAAAGUGGCUGUGGCUAGACUGCCUCUCUGGAUUCCUCGUCACUCAGCAGGGCAUCUCUGAGAGAAAUGCC [U1A U9C U39A U62C] here?
Answer: 0.18

Question: With AACGUAGGUGGUUUUCCCCUGGUAGUGCUAAGGGGGCCUGGAAGUUUGGACUGGGCAGAGCUCAACACAGCGUGGCAAAGUGGCUGUGGCUAGACUGCCUCUCUGGAUUCCUCGUCACUCAGCAGGGCAUCUUUGAGAGAAAUGCC [U1A A22G C133U] as the variant, how does the self-cleavage read?
Answer: 1.37

Question: Which self-cleavage does the source give for AACGUAGGUGGUUCUCCCCUGAUAGUGCUAAGGGGGCCUGGAAGUUUGGACUGGGCAGAGCUCGACACAGCGUGGCAGGGUGGCUGUGGCUAGACUGCCUCUCUGGAUUCCUCGUCACUCAGCUGGGCAUCUCUGAGAGAAAUGCC [U1A U14C A64G A78G A79G A124U] here?
Answer: 1.84

Question: Which self-cleavage does the source give for AACGUAGGUGGUUUUCCCCUGAUAGUGCUAAGGGGGCCUGGAAGUUUGGACUUGGCAGAGCUCAACACAGCGUGGCAAAGUGGCUGUGGCUAGACCGCCUCUCUGGAUUCCUCGUCACUCAGCAGGGCACCUCUGAGAGAAAUGCC [U1A G53U U96C U130C] here?
Answer: 0.15

Question: For AACGUAGGUGGUUUUCCCCUGAUUGUGCUAAGGGGGCCUGGAAGUUUGGACUGGGCAGAGCCCAACACAGCGUGGCAAAGUGGCUGUGGCUAUACUGCCUCUCUGGAUUCCUCGUCACUCAGCAGGGCAUCUCUGAGAGAAAUGCC [U1A A24U U62C G93U], which self-cleavage is on record?
Answer: 0.02
